# Results taken from the supplement of paper PMC3694890.
# ± gives the uncertainty stated by the source. The list shows a part of the results. A small y stands for phosphotyrosine.
# B1: ACTS_296/A1 (peptide)
# chain: yANNVM
# B2: HS105_189/A1 (peptide)
# chain: yDLVPL
# B3: ACTS_242/A1 (peptide)
# chain: yELPDG
# B4: FLT3_401/A1 (peptide)
# chain: ySISKF
# B5: FYN_30/A1 (peptide)
# chain: yGTDPT
# B6: GRB2_160/A1 (peptide)
# chain: yVQALF
# B7: HSP72_42/A1 (peptide)
# chain: yVAFTD
# B8: GRB2_209/A1 (peptide)
# chain: yVTPVN
# B9: GRB10_404/A1 (peptide)
# chain: yQNYRI
# B10: FLT3_589/A1 (peptide)
# chain: yFYVDF
# B11: ACTS_220/A1 (peptide)
# chain: yVALDF
# B12: GRAP2_45/A1 (peptide)
# chain: yVPKNF
# B13: HCK_515/A1 (peptide)
# chain: yTATES
# B14: HS105_14/A1 (peptide)
# chain: yIAVAR
# B15: HCK_522/A1 (peptide)
# chain: yQQQPG
# B16: FYN_39/A1 (peptide)
# chain: yPSFGV
# B17: FLT3_599/A1 (peptide)
# chain: yDLKWE
# B18: FYN_28/A1 (peptide)
# chain: yRYGTD
# B19: HCK_209/A1 (peptide)
# chain: yISPRS
# B20: FLT3_842/A1 (peptide)
# chain: yVVRGN
# B21: HCK_330/A1 (peptide)
# chain: yIITEF
# B22: FLT3_591/A1 (peptide)
# chain: yVDFRE
# B23: FLT3_597/A1 (peptide)
# chain: yEYDLK
# B24: FLT3_969/A1 (peptide)
# chain: yQNRRP
# B25: GRB10_67/A1 (peptide)
# chain: ySACSM
# B26: GRB7_107/A1 (peptide)
# chain: ySEDGA
# B27: IGF1R_1281/A1 (peptide)
# chain: ySEENK
# B28: HCK_411/A1 (peptide)
# chain: yTAREG
# B29: HCK_51/A1 (peptide)
# chain: yVPDPT
# B30: FLT3_416/A1 (peptide)
# chain: yIFHAE
# B31: IGF1R_1280/A1 (peptide)
# chain: yYSEEN
# B32: FLT3_726/A1 (peptide)
# chain: yPTFQS
# B33: HSP72_108/A1 (peptide)
# chain: yKGETK
# Biological target: GRB2 (endogenous complexes from cell lysate), P62993
# Assay: GRB2 complex binding differential signal (pY peptide minus Ala control peptide) (fluorescence intensity units); higher = stronger GRB2 complex binding
# Settings: MCF7
# 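Also: phosphopeptide probes on the chip at 1–4 µM, lysate proteins bound in 20 mM Tris pH 7.0 buffer with 140 mM NaCl, 1% Triton X-100 and 5% glycerol.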
row,Binder,GRB2 complex binding differential signal
1,B1,24300 ± 3300
2,B2,371 ± 280
3,B3,7560 ± 620
4,B4,2630 ± 690
5,B5,2020 ± 670
6,B6,336 ± 260
7,B7,79.7 ± 1800
8,B8,28600 ± 8800
9,B9,22000 ± 5600
10,B10,159 ± 440
11,B11,86.8 ± 560
12,B12,3340 ± 690
13,B13,1770 ± 510
14,B14,6010 ± 440
15,B15,2630 ± 800
16,B16,-287 ± 280
17,B17,29.2 ± 160

row,Binder,GRB2 complex binding differential signal
1,B18,587 ± 570
2,B19,15800 ± 1900
3,B20,4820 ± 800
4,B21,270 ± 350
5,B22,467 ± 490
6,B23,307 ± 190
7,B24,44200 ± 4400
8,B25,718 ± 400
9,B26,240 ± 180
10,B27,429 ± 230
11,B28,2200 ± 290
12,B29,1970 ± 650
13,B30,1.5 ± 120
14,B31,-0.875 ± 280
15,B32,142 ± 480
16,B33,654 ± 400

# Same assay, conditions: MCF10A
row,Binder,GRB2 complex binding differential signal
1,B1,17300 ± 2900
2,B2,490 ± 250
3,B3,3320 ± 770
4,B4,765 ± 240
5,B5,1450 ± 500
6,B6,503 ± 190
7,B7,615 ± 370
8,B8,8790 ± 3700
9,B9,25900 ± 3800
10,B10,36.5 ± 130
11,B11,268 ± 360
12,B12,1870 ± 630
13,B13,1290 ± 340
14,B14,3510 ± 550
15,B15,2510 ± 990
16,B16,68.2 ± 140
17,B17,39.2 ± 230

row,Binder,GRB2 complex binding differential signal
1,B18,259 ± 480
2,B19,14700 ± 3200
3,B20,2220 ± 650
4,B21,168 ± 360
5,B22,94.2 ± 180
6,B23,146 ± 220
7,B24,12200 ± 4900
8,B25,459 ± 290
9,B26,389 ± 210
10,B27,619 ± 170
11,B28,1840 ± 260
12,B29,1780 ± 1100
13,B30,67.3 ± 150
14,B31,166 ± 630
15,B32,55 ± 150
16,B33,1080 ± 240

# Same assay, conditions: MDA-MB-231
row,Binder,GRB2 complex binding differential signal
1,B1,5360 ± 1200
2,B2,828 ± 290
3,B3,2810 ± 850
4,B4,716 ± 300
5,B5,729 ± 300
6,B6,997 ± 390
7,B7,2820 ± 550
8,B8,5350 ± 670
9,B9,9000 ± 1200
10,B10,266 ± 380
11,B11,1760 ± 710
12,B12,680 ± 300
13,B13,1820 ± 560
14,B14,1170 ± 490
15,B15,571 ± 340
16,B16,282 ± 280
17,B17,354 ± 320

row,Binder,GRB2 complex binding differential signal
1,B18,443 ± 230
2,B19,4670 ± 770
3,B20,691 ± 230
4,B21,510 ± 280
5,B22,392 ± 460
6,B23,1080 ± 370
7,B24,3880 ± 830
8,B25,828 ± 370
9,B26,588 ± 340
10,B27,1260 ± 530
11,B28,581 ± 350
12,B29,1420 ± 410
13,B30,373 ± 280
14,B31,417 ± 340
15,B32,-114 ± 1000
16,B33,370 ± 480

# Same assay, conditions: T47D
row,Binder,GRB2 complex binding differential signal
1,B1,12300 ± 5000
2,B2,1590 ± 1300
3,B3,2240 ± 1000
4,B4,681 ± 1600
5,B5,304 ± 860
6,B6,3000 ± 1500
7,B7,8300 ± 2600
8,B8,6830 ± 2600
9,B9,33100 ± 11000
10,B10,165 ± 1100
11,B11,3460 ± 2800
12,B12,1830 ± 1500
13,B13,3930 ± 1300
14,B14,4090 ± 1000
15,B15,694 ± 1200
16,B16,458 ± 1200

row,Binder,GRB2 complex binding differential signal
1,B17,23.3 ± 1100
2,B18,848 ± 990
3,B19,4110 ± 5000
4,B20,919 ± 1000
5,B21,964 ± 1200
6,B22,1260 ± 1000
7,B23,700 ± 910
8,B24,7020 ± 2200
9,B25,2090 ± 1800
10,B26,613 ± 1700
11,B27,1310 ± 1200
12,B28,733 ± 1200
13,B29,2860 ± 1900
14,B31,135 ± 1000
15,B32,281 ± 1000
16,B33,472 ± 1100
